The target of the test is Lathyrus sativus β-L-ODAP synthase (LsBOS), N-terminal His-tag (Lathyrus sativus).

The substance “Lathyrus sativus acyl-activating enzyme 3 (LsAAE3), N-terminal His-tag” came in with a pH optimum of the LsAAE3-LsBOS coupled reaction producing β-L-ODAP in vitro of 9 pH.
